Assay results from patent US20240262905A1 (PANDION OPERATIONS, published 2024).

Biological target: T1, Insulin
T1 construct: Plate coat in the polyreactivity ELISA
Assay: ELISA, plate coated with insulin 5 ug/mL, test article at 100 nM, anti-human Fc-HRP detection

Insulin polyreactivity score: 6.3
B1: IL2DSGAB2 (other)
heavy: QVQLVQSGAEVRKPGASVRVSCKASGYTLTTYDINWVRQATGQGLEWMGWMNPTSGNTAYAQKFQGRVTMTRNTSISTAYMELSSLRSEDTAVYYCARGLFFGVVTKPNYYYYAMDVWGQGTTVTVSSASTKGPSVFPLAPSSKSTSGGTAALGCLVKDYFPEPVTVSWNSGALTSGVHTFPAVLQSSGLYSLSSVVTVPSSSLGTQTYICNVNHKPSNTKVDKKVEPKSCDKTHTCPPCPAPEAAGAPSVFLFPPKPKDTLMISRTPEVTCVVVDVSHEDPEVKFNWYVDGVEVHNAKTKPREEQYNSTYRVVSVLTVLHQDWLNGKEYKCKVSNKALPAPIEKTISKAKGQPREPQVYTLPPSREEMTKNQVSLTCLVKGFYPSDIAVEWESNGQPENNYKTTPPVLDSDGSFFLYSKLTVDKSRWQQGNVFSCSVMHEALHNHYTQKSLSLSPGGGGGSAPTSSSTKKTQLQLEHLLLDLQMILNGINNYKNPKLTRMLTFKFYMPKKATELKHLQCLEEELKPLEEALNLAPSKNFHLRPRDLISDINVIVLELKGSETTFMCEYADETATIVEFINRWITFSQSIISTLT
light: [about 200 residues omitted]
notes: SD2 anti-desmoglein human IgG1 with the IL-2 mutein fused to the C-terminus of the heavy chain; copies: 2 + 2
